Measurements taken from a collection of fitness landscapes (doi:10.1038/s41467-024-54723-y).
Whole data set: some 18,000 sequences, median “TetR repression strength (sort-seq, GFP reporter)” near 0.23, cut for the highest 2% near 0.68. The list shows a part of the results.

molecular target: TetR (class B, Tn10) (UniProt P04483); assay: TetR repression strength (sort-seq, GFP reporter) (relative to tetO2 = 1); higher = stronger repression; conditions: E. coli
Summary of the method: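 Repression strength was calculated by subtracting the read-weighted mean bin from the top bin index plus one and dividing by the unaltered operator's value. The plasmid library was low-copy in E. coli SIG10-MAX, with eight randomized operator positions between a constitutive promoter and sfGFP and constitutive TetR. Cultures grew 5 h at 37 °C in LB containing 50 µg/mL chloramphenicol before 10^6 cells were sorted by FACS into 13 fluorescence bins, each sequenced on Illumina. Three independent transformations were averaged for members having ≥30 reads in all replicates and a CV ≤0.5.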

Chain of UniProt P04483 (P04483 whole entry): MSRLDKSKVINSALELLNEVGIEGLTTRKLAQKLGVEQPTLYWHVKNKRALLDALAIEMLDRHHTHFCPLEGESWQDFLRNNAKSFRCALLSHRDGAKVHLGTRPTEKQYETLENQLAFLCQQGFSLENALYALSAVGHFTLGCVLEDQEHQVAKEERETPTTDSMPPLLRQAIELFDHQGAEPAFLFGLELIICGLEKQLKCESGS

| Sequence | TetR repression strength |
| --- | --- |
| TCCCAGAGAGTACATGAGA | 0.306 |
| TCCCGACTAGTTTAGGAGA | 0.298 |
| TCCCAATAAGTAATGGAGA | 0.352 |
| TCCCGAGTAGTTTATGAGA | 0.247 |
| TCCCCTCAAGTTGGAGAGA | 0.0403 |
| TCCCCCTCAGTGGTAGAGA | 0.399 |
| TCCCCTTTAGTGGAGGAGA | 0.184 |
| TCCCTACGAGTAAGCGAGA | 0.164 |
| TCCCACCAAGTACAGGAGA | 0.186 |
| TCCCCGAGAGTGAGGGAGA | 0.129 |
| TCCCTTGGAGTGCAGGAGA | 0.0653 |
| TCCCCGAGAGTTTTCGAGA | 0.224 |
| TCCCGCGGAGTGGCCGAGA | 0.171 |
| TCCCTAGAAGTTTTAGAGA | 0.171 |
| TCCCCGAAAGTAGCTGAGA | 0.253 |
| TCCCGTTCAGTCGGGGAGA | 0.315 |
| TCCCTGGGAGTATATGAGA | 0.643 |
| TCCCGGCTAGTATACGAGA | 0.226 |
| TCCCCGCAAGTGTTGGAGA | 0.0176 |
| TCCCTCGCAGTATTAGAGA | 0.398 |
| TCCCGGGAAGTGGGGGAGA | 0.274 |
| TCCCGCGCAGTTGACGAGA | 0.361 |
| TCCCTAGCAGTACAAGAGA | 0.0777 |
| TCCCACGTAGTGGTAGAGA | 0.214 |
| TCCCGTCCAGTTTCCGAGA | 0.287 |
| TCCCGGAAAGTGCCAGAGA | 0.323 |

| Sequence | TetR repression strength |
| --- | --- |
| TCCCTGCGAGTGGCTGAGA | 0.148 |
| TCCCAGTGAGTGGCCGAGA | 0.239 |
| TCCCGAAGAGTTGGCGAGA | 0.111 |
| TCCCGGCGAGTGAGCGAGA | 0.262 |
| TCCCTGTAAGTATTTGAGA | 0.253 |
| TCCCGTGCAGTCTTCGAGA | 0.514 |
| TCCCTTCGAGTCGGAGAGA | 0.17 |
| TCCCCTACAGTGGGGGAGA | 0.207 |
| TCCCATGAAGTAACGGAGA | 0.0402 |
| TCCCACTGAGTGCAGGAGA | 0.136 |
| TCCCTATGAGTGCACGAGA | 0.483 |
| TCCCCAATAGTAGACGAGA | 0.295 |
| TCCCGGGAAGTTTGTGAGA | 0.247 |
| TCCCATACAGTGAAGGAGA | 0.183 |
| TCCCAAGTAGTCCATGAGA | 0.257 |
| TCCCAGGGAGTCCTCGAGA | 0.267 |
| TCCCAACCAGTACTGGAGA | 0.0854 |
| TCCCTAGGAGTAGTTGAGA | 0.252 |
| TCCCAGTTAGTGCTTGAGA | 0.327 |
| TCCCCGGAAGTTCGTGAGA | 0.137 |
| TCCCGGCTAGTCACAGAGA | 0.479 |
| TCCCGTCTAGTAGTGGAGA | 0.468 |
| TCCCGCGTAGTGCGGGAGA | 0.292 |
| TCCCGAGCAGTATAGGAGA | 0.334 |
| TCCCGTAGAGTTTGTGAGA | 0.179 |
| TCCCCGAGAGTAAACGAGA | 0.4 |

| Sequence | TetR repression strength |
| --- | --- |
| TCCCGCCGAGTCCTAGAGA | 0.636 |
| TCCCTGTAAGTTCGCGAGA | 0.128 |
| TCCCAATAAGTTTGGGAGA | 0.167 |
| TCCCTTGGAGTGGTGGAGA | 0.222 |
| TCCCAACCAGTGGTCGAGA | 0.057 |
| TCCCCTAGAGTCGGGGAGA | 0.175 |
| TCCCTAGGAGTGCTTGAGA | 0.57 |
| TCCCTACTAGTATGTGAGA | 0.426 |
| TCCCAACCAGTGGTAGAGA | 0.363 |
| TCCCAATCAGTTATAGAGA | 0.58 |
| TCCCAGCAAGTTCGGGAGA | 0.241 |
| TCCCAGACAGTGGTAGAGA | 0.194 |
| TCCCCTATAGTACTAGAGA | 0.317 |
| TCCCGACTAGTTAGTGAGA | 0.25 |
| TCCCCACGAGTTGGAGAGA | 0.277 |
| TCCCTTTCAGTGTAAGAGA | 0.296 |
| TCCCGCTGAGTTTTGGAGA | 0.411 |
| TCCCGGGCAGTAGGTGAGA | 0.61 |
| TCCCTCAAAGTGTCCGAGA | 0.31 |
| TCCCTTGAAGTACTCGAGA | 0.155 |
| TCCCCAAGAGTCCAGGAGA | 0.132 |
| TCCCGCTGAGTCGTTGAGA | 0.136 |
| TCCCGCAGAGTTGAAGAGA | 0.285 |
| TCCCCCAAAGTATGTGAGA | 0.23 |
| TCCCTTGGAGTTGCCGAGA | 0.246 |
| TCCCCACCAGTAGATGAGA | 0.346 |

| Sequence | TetR repression strength |
| --- | --- |
| TCCCCTCCAGTGTGGGAGA | 0.133 |
| TCCCGTTAAGTGCCTGAGA | 0.419 |
| TCCCTACCAGTTGGGGAGA | 0.288 |
| TCCCTGCAAGTGGGAGAGA | 0.321 |
| TCCCGTCCAGTGCTGGAGA | 0.212 |
| TCCCCTGCAGTGATAGAGA | 0.492 |
| TCCCTAGCAGTAGTAGAGA | 0.681 |
| TCCCGCGTAGTATAGGAGA | 0.2 |
| TCCCATTGAGTCGATGAGA | 0.166 |
| TCCCATCTAGTTGGAGAGA | 0.371 |
| TCCCCAAGAGTCTTGGAGA | 0.193 |
| TCCCATACAGTGAAAGAGA | 0.353 |
| TCCCCGTGAGTTTCTGAGA | 0.181 |
| TCCCGGGCAGTGGTTGAGA | 0.334 |
| TCCCCTCTAGTGAGTGAGA | 0.23 |
| TCCCACAGAGTGACGGAGA | 0.0886 |
| TCCCTGGGAGTGGTAGAGA | 0.221 |
| TCCCGGCAAGTTAGTGAGA | 0.0764 |
| TCCCCTTTAGTGCCTGAGA | 0.523 |
| TCCCTACTAGTTGTCGAGA | 0.289 |
| TCCCCATAAGTAGAAGAGA | 0.443 |
| TCCCAGCGAGTGGGTGAGA | 0.101 |
| TCCCAGGGAGTAGCTGAGA | 0.21 |
| TCCCAGGTAGTGGCGGAGA | 0.176 |
